Results: the supplement of paper PMC4967469
pIC50: −log10 of the molar value. A lower IC50 marks a more sensitive line; a limit (>, <) means that the fit lies beyond the doses tested. The AUC spans the tested range (256-fold, ending at the top dose) of the same fit; values near 1 show little effect. For some assays here: Any top dose called inferred is not printed in the source and was worked back from the curve model. For some assays here: Drugs with an entry number were screened twice under separate entries, and the two screens often disagree.

Key:
Assay in all cases: Viability of human cancer cell lines after 72 h of drug (GDSC screen)
Tamoxifen = compound: CC/C(=C(\c1ccccc1)c1ccc(OCCN(C)C)cc1)c1ccccc1 [Tamoxifen]; conditions: top dose 5 µM
Description: (§1)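 Human cancer cell lines in 384-well plates, medium with 10% serum, drug for 72 h over a 256-fold dose range (nine 2-fold or five 4-fold steps up to the top dose). Adherent lines were fixed and stained with the nucleic acid dye Syto60, suspension lines read with resazurin; signal relative to control wells, capped at 0 and 100%. One two-parameter sigmoid per drug and line, fitted in a mixed model over all curves with the slope shared within a line.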

Elesclomol = compound: CN(NC(=O)CC(=O)NN(C)C(=S)c1ccccc1)C(=S)c1ccccc1 [Elesclomol]; conditions: top dose 0.2 µM; top dose inferred
Description: as §1

HG-5-88-01 = compound: COc1cc(N2CCC(C(N)=O)CC2)ccc1Nc1nc(N)c(Cl)c(Nc2ccccc2S(=O)(=O)C(C)C)n1 [HG-5-88-01]; conditions: top dose 10 µM; top dose inferred
Description: as §1

Bleomycin = compound: Cc1c(N)nc([C@H](CC(N)=O)NC[C@H](N)C(N)=O)nc1C(=O)N[C@H](C(=O)N[C@H](C)[C@@H](O)[C@H](C)C(=O)N[C@H](C(=O)NCCc1nc(-c2nc(C(=O)NCCC[S+](C)C)cs2)cs1)[C@@H](C)O)[C@@H](OC1OC(CO)C(O)C(O)C1OC1OC(CO)C(O)C(OC(N)=O)C1O)c1cnc[nH]1 [Bleomycin]
Description: as §1

VNLG/124 = compound: CCCC(=O)OCc1ccc(OC(=O)/C=C(C)/C=C/C=C(C)/C=C/C2=C(C)CCCC2(C)C)cc1 [VNLG/124]; conditions: top dose 5.12 µM; top dose inferred
Description: as §1

Masitinib = compound: Cc1ccc(NC(=O)c2ccc(CN3CCN(C)CC3)cc2)cc1Nc1nc(-c2cccnc2)cs1 [Masitinib]; conditions: top dose 20 µM
Description: as §1

LAQ824 = compound: O=C(/C=C/c1ccc(CN(CCO)CCc2c[nH]c3ccccc23)cc1)NO [LAQ824]; conditions: top dose 1.024 µM; top dose inferred
Description: as §1

OSI-930 = compound: O=C(Nc1ccc(OC(F)(F)F)cc1)c1sccc1NCc1ccnc2ccccc12 [OSI-930]; conditions: top dose 10.24 µM
Description: as §1

BX-912 = compound: O=C(Nc1cccc(Nc2ncc(Br)c(NCCc3cnc[nH]3)n2)c1)N1CCCC1 [BX-912]; conditions: top dose 10.24 µM; top dose inferred
Description: as §1

NSC-87877 = compound: O=S(=O)(O)c1ccc2cc(N=Nc3cc(S(=O)(=O)O)c4cccnc4c3O)ccc2c1 [NSC-87877]; conditions: top dose 16 µM; top dose inferred
Description: as §1

[1] = top dose 50 µM, screen: GDSC drug entry 1378, top dose inferred
[2] = top dose 64 µM, screen: GDSC drug entry 190

Cell Line | AUC (Tamoxifen) | pIC50 (Tamoxifen) | AUC (Elesclomol) | pIC50 (Elesclomol) | AUC (HG-5-88-01) | pIC50 (HG-5-88-01) | AUC (Bleomycin; [1]) | pIC50 (Bleomycin; [1]) | AUC (VNLG/124) | pIC50 (VNLG/124) | AUC (Bleomycin; [2]) | pIC50 (Bleomycin; [2]) | AUC (Masitinib) | pIC50 (Masitinib) | AUC (LAQ824) | pIC50 (LAQ824) | AUC (OSI-930) | pIC50 (OSI-930) | AUC (BX-912) | pIC50 (BX-912) | AUC (NSC-87877) | pIC50 (NSC-87877)
HCC-366 (non-small cell lung carcinoma, adherent) | 0.979 | < 5.30 | 0.551 | 7.76 | 0.945 | < 5.00 | 0.277 | 6.15 |  |  |  |  |  |  |  |  |  |  |  |  |  | 
NCI-N87 (stomach, adherent) | 0.969 | < 5.30 | 0.826 | < 6.70 | 0.894 | < 5.00 | 0.843 | < 4.30 |  |  |  |  |  |  |  |  |  |  |  |  |  | 
PWR-1E (prostate, adherent) | 0.986 | < 5.30 | 0.41 | 8.15 | 0.919 | < 5.00 | 0.26 | 6.19 |  |  |  |  |  |  |  |  |  |  |  |  |  | 
DIFI (large intestine, adherent) | 0.963 | < 5.30 | 0.952 | < 6.70 | 0.904 | < 5.00 | 0.981 | < 4.30 |  |  |  |  |  |  |  |  |  |  |  |  |  | 
NCC010 (kidney, adherent) | 0.968 | < 5.30 | 0.63 | 7.53 | 0.955 | < 5.00 | 0.871 | < 4.30 |  |  |  |  |  |  |  |  |  |  |  |  |  | 
NCI-H508 (large intestine, semi-adherent) | 0.936 | < 5.30 | 0.951 | < 6.70 | 0.836 | < 5.00 | 0.9 | < 4.30 |  |  |  |  |  |  |  |  |  |  |  |  |  | 
CL-34 (large intestine, adherent) | 0.986 | < 5.30 | 0.982 | < 6.70 | 0.879 | < 5.00 | 0.853 | 4.34 |  |  |  |  |  |  |  |  |  |  |  |  |  | 
MKN7 (stomach, adherent) | 0.969 | < 5.30 | 0.765 | 7.00 | 0.976 | < 5.00 | 0.853 | < 4.30 |  |  |  |  |  |  |  |  |  |  |  |  |  | 
NCI-H929 (myeloma, suspension) | 0.981 | < 5.30 | 0.538 | 7.81 | 0.422 | 6.40 | 0.837 | 4.57 |  |  |  |  |  |  |  |  |  |  |  |  |  | 
KATOIII (stomach, semi-adherent) | 0.974 | < 5.30 | 0.795 | 7.07 | 0.988 | < 5.00 | 0.97 | < 4.30 |  |  |  |  |  |  |  |  |  |  |  |  |  | 
VMRC-LCD (lung adenocarcinoma, adherent) | 0.986 | < 5.30 | 0.668 | 7.47 | 0.988 | < 5.00 | 0.886 | 4.40 |  |  |  |  |  |  |  |  |  |  |  |  |  | 
MDA-MB-330 (breast, adherent) | 0.977 | < 5.30 |  |  | 0.911 | < 5.00 | 0.969 | < 4.30 | 0.956 | < 5.29 | 0.631 | 5.01 | 0.946 | < 4.70 | 0.412 | 7.45 | 0.966 | < 4.99 | 0.982 | < 4.99 | 0.98 | < 4.80
EW-22 (Ewing sarcoma, adherent) | 0.987 | < 5.30 | 0.778 | 7.11 | 0.861 | 5.10 | 0.428 | 5.70 |  |  |  |  |  |  |  |  |  |  |  |  |  | 
LNCaP-Clone-FGC (prostate, adherent) | 0.97 | < 5.30 |  |  | 0.981 | < 5.00 | 0.713 | 4.86 | 0.977 | < 5.29 | 0.7 | 4.80 | 0.809 | 4.91 | 0.469 | 7.28 | 0.932 | < 4.99 | 0.983 | < 4.99 | 0.981 | < 4.80
TE-10 (oesophagus, adherent) | 0.96 | < 5.30 |  |  | 0.934 | < 5.00 | 0.51 | 5.48 | 0.984 | < 5.29 | 0.373 | 5.74 | 0.93 | < 4.70 | 0.429 | 7.39 | 0.959 | < 4.99 | 0.929 | < 4.99 | 0.987 | < 4.80
MFE-319 (endometrium, adherent) | 0.973 | < 5.30 |  |  | 0.965 | < 5.00 | 0.77 | 4.74 | 0.982 | < 5.29 | 0.2 | 6.27 | 0.901 | < 4.70 | 0.482 | 7.24 | 0.984 | < 4.99 | 0.958 | < 4.99 | 0.952 | < 4.80
COLO-829 (melanoma, adherent) | 0.965 | < 5.30 |  |  | 0.967 | < 5.00 | 0.869 | < 4.30 | 0.979 | < 5.29 | 0.75 | 4.52 | 0.919 | < 4.70 | 0.716 | 6.45 | 0.969 | < 4.99 | 0.979 | < 4.99 | 0.978 | < 4.80
SK-CO-1 (large intestine, adherent) | 0.988 | < 5.30 |  |  | 0.774 | 5.43 | 0.2 | 6.37 | 0.989 | < 5.29 | 0.033 | > 6.60 | 0.973 | < 4.70 | 0.582 | 6.97 | 0.989 | < 4.99 | 0.955 | < 4.99 | 0.989 | < 4.80
IST-MES1 (mesothelioma, adherent) | 0.975 | < 5.30 |  |  | 0.952 | < 5.00 | 0.473 | 5.58 | 0.988 | < 5.29 | 0.877 | < 4.19 | 0.97 | < 4.70 | 0.566 | 7.01 | 0.983 | < 4.99 | 0.948 | < 4.99 | 0.988 | < 4.80
